Data reported in the supplement of paper PMC3334620.
Over roughly 33,000 sequences, “E-score (-0.5 to 0.5)” has its median near -0.01; the highest 2% begin near 0.26. Some of the results follow.

The sequences below were run against Ste12 (UniProt P13574) (assay: PBM E-score (8-mer binding enrichment) (E-score (-0.5 to 0.5)); higher = stronger / more preferred TF binding; most listed sequences are background and not binding sites). Conditions: protein concentration: 200 nM; construct: GST-DNA-binding domain.
Procedure: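 Universal 'all 10-mer' protein binding microarrays (Agilent AMADID 015681) probed with GST-tagged S. cerevisiae TFs (full-length or DBD) made by in vitro transcription/translation (PURExpress), about 100-200 nM. Bound TF was detected with fluorescent anti-GST. Each ungapped 8-mer (which stands for itself and its reverse complement) is scored by the PBM enrichment score (E-score), a modified Wilcoxon-Mann-Whitney statistic from -0.5 to +0.5, computed with the Universal PBM Analysis Suite. Scale: above 0.35 generally sequence-specific binding.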

In order of rising “PBM E-score” value:
1. GCTCTCAC  -0.339
2. CCTGTAGC  -0.252
3. AATTCGAC  -0.246
4. CTTTCGCC  -0.244
5. AGCGGACT  -0.233
6. ACAGGACT  -0.223
7. CCTCTGCG  -0.216
8. GAAAGTTC  -0.216
9. CCTAGTCC  -0.211
10. CTCTGGGC  -0.203
11. AGCTTGGA  -0.203
12. CCCCATTA  -0.193
13. CCTAGAGC  -0.189
14. GTCGGTGA  -0.188
15. ACAGGTCC  -0.187
16. CACTGTCG  -0.186
17. CTTGTGCA  -0.184
18. CAACCGTA  -0.184
19. CTGTTGAC  -0.174
20. ACGTCCTC  -0.172
21. ACCCCCCG  -0.17
22. CTCAGCCC  -0.168
23. CACGCCTA  -0.159
24. CATTCTCC  -0.157
25. AGTAGGTA  -0.155
26. AAGTCCGC  -0.146
27. AGAGCGTA  -0.143
28. AGGATCCA  -0.141
29. GCCTTAAC  -0.13
30. GATCCCTA  -0.128
31. GATGACCA  -0.127
32. CCACTGAC  -0.126
33. CGACCTAG  -0.124
34. GTCGCTCA  -0.123
35. ACGCTGCA  -0.119
36. AGACTTCC  -0.108
37. CCGGCCAG  -0.107
38. AAGAGTTC  -0.105
39. AGCTACGA  -0.102
40. GATTTCCC  -0.0998
41. GGACTGAC  -0.0969
42. AGTGAGCA  -0.0953
43. CGGCTAAC  -0.0941
44. GGCCAGCC  -0.0902
45. CCCCTGTC  -0.0877
46. GGATCGAA  -0.0832
47. GCTACCGA  -0.0832
48. GTACTCTA  -0.0825
49. CGTTGGAG  -0.0815
50. CTCCACCC  -0.0779
51. CGCTATCA  -0.0756
52. AGGAATGG  -0.0752
53. CGAAGGAC  -0.0697
54. TACGATGA  -0.0696
55. CTCCGCTA  -0.0696
56. CGTTGCAC  -0.0662
57. GATTGCAC  -0.0646
58. GAAGATTC  -0.0646
59. GTCAGGGA  -0.0596
60. CCGCCTAA  -0.0574
61. GCTCGGTA  -0.0567
62. GCTGCCGA  -0.056
63. GATGACTA  -0.0558
64. AGGCCTAA  -0.0544
65. GCGCTTCC  -0.0472
66. AAGCTCAT  -0.0461
67. ACATGTGA  -0.0437
68. ACCCTACC  -0.0406
69. GAATGTAC  -0.0391
70. TCCATCCA  -0.039
71. CAATGTAC  -0.0352
72. CGCCTGCC  -0.0348
73. CGACTGGC  -0.0341
74. AGGGGTAA  -0.0335
75. CCGAGAAC  -0.0321
76. CGCACCGA  -0.0312
77. ATTGACTC  -0.0234
78. AGGTCCGG  -0.018
79. TCCTTCAA  -0.0162
80. AGCATAAC  -0.00864
81. CACATATC  -0.00781
82. AACCGGGG  -0.00779
83. GACGCACC  -0.00732
84. AGATCTGA  -0.00294
85. CTTTGTCA  -0.00195
86. AGATACGC  -0.00123
87. CCTCACCC  0.00023
88. ACAGAACG  0.00036
89. ATATCGTC  0.00202
90. AAGCTGCC  0.00259
91. ACATATAG  0.00266
92. TACGGATA  0.00564
93. AACGTCCT  0.00651
94. GCCCCAAA  0.00773
95. CGGTAGAC  0.00936
96. ACCTTGTA  0.0127
97. ACACCTTG  0.0158
98. TCCTTCGA  0.0182
99. ACGTAAAG  0.0191
100. TCGCTTCA  0.0193
101. GGCAGACA  0.0195
102. GATCATAC  0.0216
103. AACGCTAC  0.0235
104. AAATAGCG  0.0263
105. GGATCAAC  0.0276
106. GATCAGGA  0.0285
107. GGCTTTCA  0.0292
108. AAGGAACT  0.0302
109. GACGCGCA  0.0305
110. ATCTGAGA  0.0322
111. AAGATGGT  0.0337
112. AATGACGC  0.0343
113. ACAAGCTC  0.0349
114. CGAATTGA  0.0366
115. TCTGTACA  0.0387
116. ATAACGTC  0.041
117. ACAACGCT  0.0428
118. ACTATTTC  0.0445
119. GATATCAC  0.0447
120. TGGACAAA  0.0459
121. ATCGAGAG  0.0528
122. CGCGTGTA  0.0551
123. AAGGCGGG  0.0588
124. GATCGAAA  0.0588
125. ATGTTCGA  0.0622
126. ATACTAGC  0.0647
127. ATCTCCAT  0.0661
128. ACGCGTCG  0.0699
129. ATTCTACC  0.0724
130. AATTGCGA  0.073
131. TATCATAA  0.0742
132. CGAGGCGC  0.0766
133. ACAGTTCG  0.079
134. CAGGGTGG  0.08
135. CGGATTAC  0.0808
136. ACCGCAAG  0.081
137. ATAAGGTA  0.0828
138. ATTAGGAA  0.087
139. ACGATGTG  0.0886
140. AGACAAGA  0.0955
141. AGTATTGA  0.102
142. AATCCTCA  0.104
143. GAACACTC  0.112
144. AACGTTAA  0.116
145. AACTCCCA  0.118
146. TAACACAA  0.124
147. GACTAGTA  0.125
148. GCAAATCA  0.126
149. CCGTTTTC  0.133
150. AACCTCTT  0.136
151. AATTTGAG  0.138
152. CGAACCGC  0.144
153. CCGTTTCG  0.164
154. CGACGCGC  0.173
155. GATAGATA  0.182
156. ATACAAGC  0.184
157. AACACCGG  0.197
158. GCTTGAAA  0.198
159. AATACACC  0.208
160. TGTGAAAA  0.216
161. ACTTTATA  0.227
162. CAAAACTA  0.235
163. CACGAAAA  0.243
164. CGATTTTC  0.247
165. ATAATATG  0.248
166. AAACGACA  0.255
167. AATCAGAA  0.27
168. AATATCAA  0.283
169. ATTTATTA  0.292
170. TTTGAAAA  0.309
171. CAAAATAA  0.33
172. GTTTCACA  0.447
